In all, about 2,300 sequences were measured (“median log2 fold change of GCK-ALFA target abundance (FLAG IP / Myc IP barcode read proportion)”: median about 0.095, lowest 2% from about -0.47 on). This is one part of the list.
B1: LC3A_45_1940 (protein)
chain: MWRATVDIGVPRELAEEARAAALEAMDEIEAEGGPEVRVNRAALDESYEATKDEETVLLVVEIYAPDRETALRYADRLVDYLRERLGPAVAAIISLEELP
B2: LC3A_132_327 (protein)
chain: EEEKYEKLNAEITALLDEALANVDDLEKVEKLFDETEKLLKEAEKEISPEKAAELYNKAADKYDEVADKAAEAGQEDVEALASGKSVEAEARAIRAEEKI
B3: LC3A_3_1403 (protein)
chain: FEEIKKETIEYLKKIGRSEEVIKAAKKLLDALAKKGWEKAAKTFLEELKKLKDVSDELLLDFLEEALAFVESYDGDEEEAVKKIKELAKVTLNESEIIEL
B4: LC3A_28_1272 (protein)
chain: SAIDASIAAALAAAEEAKARGEPAVITITVDGNATQEDIDKVIAAIEEIAELLKDVPDQAIVVNVDAGVAQENIDKLADAAEEIEEKYPNVTVILALDED
B5: LC3A_3_1631 (protein)
chain: MEERLEEALEELRAAGASEETLEAFRETAEALIERGFYEAAETLIEETRELAGLPSELLLDFLEDVLEYVKTNDADEEEVIEYIKETARTTRSEAEIEEL
B6: LC3A_free_39_2281 (protein)
chain: SSSMAEEARARFLALAESASPETRELLLRLLEIFKDDPEAVRRIVEALERAREEGADMLRIARRALEVAEELKERGESLEEIAEAVVETIEDEINLQPID
B7: LC3A_28_787 (protein)
chain: SELKKNADAALEEAKKAAAEGISTVITIKVTGDATQEDIDYVIKKMKEIAEVLKDIENQAIIIDVSKDVSQEHLDKLMKAAEEIEKKYPNVTVIIALEEK
B8: LC3A_28_917 (protein)
chain: MTPEEIIAAIRAAVDAAIAAGEDAHIEIEIGPNTTPEEARRIMEALEEEVARAAAAGLRVDITVDLDDVSQEVLDIVAERLERIEEKYPLASAIIALDEE
B9: LC3A_147_417 (protein)
chain: NTLKVTIDILGTLTDEEIQELVDALKAVGEKFGAKVEVKVEVEELPDGSRFVRIEITLTGVKEEDVEALKNALIDTVDEFEEKHKDKISASLISFEVIKT
B10: LC3A_127_219 (protein)
chain: MLEELLKLVREAARLADELVEDPSLDFEKALKEIEELLKEALKLAEEAGLPEEVIKDIKEALKLVKEARTADPEERKELLERASLLMDGVEIEIESLILK
B11: LC3A_free_46_2322 (protein)
chain: YKAEIDIYIDGVDKETAEKLVEELKKEFKEIAEKYGLKLEIKVKIEKNEDGTYFVEIEITLEGEDKEKLKEAVNEIIEKSEEIAEKYGASIVISYEIEEK
B12: LC3A_free_26_2157 (protein)
chain: EKFVDIAAIDEAEERLEELERLLREQGGETERLAQKAEEARELVRKETLESLEAAIELLREMEEEVREELELPEEVRERAERLLEEARRLVEEVVEIMKS
B13: LC3A_28_652 (protein)
chain: SAVDAALAAALAAARAARAAGEPAVITIRVPGDADDADIDRVLATLEEIAAILAPIPGSAIVVELDGDLADEHRDRIIDKAEELEARYPNVTVIIAEEER
B14: LC3A_28_1025 (protein)
chain: SAAEAAVAAARAEAEAQRAAGEDIFVTITVTADTTLEDARLIVEGIREIVEEHKDEKNISIIIDVERGVSQEVIDLLADGAEEIEKEYPNVNVIIALEEE
B15: LC3A_3_1369 (protein)
chain: MEEKVKEALEFLREAGKSEETIKAVEKALKALIEKGYEKAAEEFIKLLKELKDLSDEILLNFAEDVLEAVENEDLSEEELIEFIKEEARVARNEEEIEEL
B16: LC3A_28_829 (protein)
chain: SDIEARLAAFRAEVAAAVAAKESATFTVTITDKDTLEEVKTIMDAIREEAAKAADVPNQSIIIDLDGKISQEKLNLISEAADEIEEEYPNVNVIIALPED
B17: LC3A_28_950 (protein)
chain: MSIEENIEKALKEAKEAKEKNEPVVITLVLEDDPSEEAVEALIEAMEEIAELLKDIKGTTIIVDVSSKVKQEHIDAIADKGEEIEKKYPNINVIIALDED
B18: LC3A_3_1723 (protein)
chain: MEKIKAEALAVLKAQGASPETIKAAEELLKALEEKGFLEAAKTLLEELKKLKGVSSEDLLAALKDLLYKVTNEDLSEEEVIEEIKREFSVLKSAKEIEEL
B19: LC3A_3_1843 (protein)
chain: LDAAVEATLAELRAAGHSEATLAAVRETAELLKARGYDEALETFIALMRELAGLPSDLLLALAEDVKAYLETNDWSEAEVKAYIEAEARLYRNEAEIEEL
B20: LC3A_28_1215 (protein)
chain: SAIDEELEKAEKEMEEAKKKGEEALITIKIPATATVEDVKRAMERLEEIVEKVKDLPSISIIVDFEAGVSQEVIDAAAEGGERIEKKFPNVTVIIALDEE
B21: LC3A_3_1440 (protein)
chain: SEELLEEAREVLEKIGASEEAREAVLRLVERALEAGEEEGVRELIEVLKKAKKVKSEKLLEAAERALRRIEEEGVPVEEALREFIEEIRLLELEEEIEEL
B22: LC3A_28_1238 (protein)
chain: NPVEEQLERARAEVEEAVAAGEEALVELTVTKDTTQEDVDKIIEAMEEIAELAATLPALDIIINVERGVPQEHIDKLADAADEIEARYPNVTVIIALEEE
B23: LC3A_102_139 (protein)
chain: SLEEKIKKKIEELLKEFKKFLEKDKSLTEEEKKRALELVKEALEAAAKNTVTELQHGFVDIEAEDKLLEKLEELAKIGKEVAEKAKKLIEKLKKYIKELM
B24: LC3A_23_605 (protein)
chain: MYKVEVIVDFIDKPEEAEKKVEELLKKVEELLKKHKDIVKDYEIKVTREALPDGTTYVEVEITIIIDGTKEEAEEIRNELESIASETLPNGVISSEVEEL
B25: LC3A_free_39_2194 (protein)
chain: SEEETKKAKEELLKLAAEAGEEAKKLAEEIIELIGEELEKLKALLEALKKAKEEGVDILEVLKEALKLAKELKAQGKSKEEIFKAVLQLIEDAINLIPID
B26: LC3A_132_312 (protein)
chain: MEEKYAEIKARLDALLDEAAANIKDKAKVQALLKEIKALLEEAEKELTPEQVAELYDYVADRLDALSQQALAAGQEDVALDLDAASIEAASRSLEAEKKI
B27: LC3A_3_1888 (protein)
chain: MEEKVEEALKKLKEAGASEETLEAFKEAFELLKERGWEEALKTLIEEVEELLDAPNEVLLDFLKEVIELLKQPGVSEEELIKGIKELARLAKNEAEIEEL
B28: LC3A_102_151 (protein)
chain: TPEQRVREAARRALEELLEAIEANESLTPEQKEEARRLAREAIEAALESALSYLRHGFADIEAEDRRIEAIERLAEIDPELAELLRRKIEELERLVEELK
B29: LC3A_28_1078 (protein)
chain: SPIAEQVAAALAEAKAAAARGEEAVLTITVTEDATQEDIDTVIAGLEELAELAKTGGKVTVIIDLDGDIPQEHIDKLADAAEEVEKRNPNLTVIIALPDE

Target: MAP1LC3A, Q9H492
Test: median log2 fold change of GCK-ALFA target abundance (FLAG IP / Myc IP barcode read proportion) (log2 ratio); each designed protein is fused to an ALFA-tag nanobody in HEK293 cells to bring the named protein to FLAG-tagged glucokinase (GCK); Myc marks an untargeted standard; higher = target protein stabilised (more abundant)
Conditions: target protein: 3xFLAG-MCP-GCK-ALFA reporter; HEK293 landing pad (RPLP)
Summary of the method: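 Sequencing of reverse-transcribed, amplified circular RNA barcodes from anti-FLAG and anti-Myc immunoprecipitates provided the readout for an ALFA-nanobody-fused binder library recombined into HEK293 landing-pad cells. Those cells were induced with 2 μg mL^−1 doxycycline, transfected with a plasmid expressing a FLAG-tagged target and a Myc-tagged standard, and lysed after 48 h. Target abundance is the per-binder median log2 ratio of FLAG to Myc barcode read proportions. Only barcodes at a proportion of ≥10^−7 in both replicates and binders with ≥3 barcodes per replicate were kept, with a 10^−6 pseudocount added before the two replicates were pooled.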

Binder	median log2 fold change
B1	0.162
B2	0.348
B3	0.24
B4	0.0796
B5	-0.0743
B6	0.13
B7	0.115
B8	0.181
B9	-0.315
B10	0.358
B11	0.337
B12	0.154
B13	0.0787
B14	-0.176
B15	0.123
B16	0.219
B17	0.204
B18	0.206
B19	0.466
B20	0.112
B21	0.267
B22	-0.0597
B23	0.262
B24	-0.868
B25	0.19
B26	0.361
B27	0.306
B28	0.208
B29	0.0592
